Test results published in PubChem BioAssay (Tox21).
Where “and” joins values, the source holds several entries; their conditions need not be identical. Equal entries are not always repeated. This list was built around the results that the source calls inconclusive (neither active nor inactive); the mix of calls is not that of the screen. Potencies of inconclusive entries are doubtful fits and often do not repeat. Calls of active or inactive are those of the source. Unless noted, calls follow the shape of the dose curve; as a rule, active = well fitted curve in the direction sought with a large enough effect in the repeat runs; inconclusive = weak or mixed curves; inactive = no such curve, though single readings can be large; an effect the other way counts as inactive or inconclusive.
Potency is read from the fitted curve at half-maximal effect; tags tell the direction and shape of the fitted curve or compound fluorescence and quenching.

Molecular target: Estrogen receptor beta (Homo sapiens) (UniProt Q92731)
UniProt Q92731, sequence (Q92731 whole entry, looked up): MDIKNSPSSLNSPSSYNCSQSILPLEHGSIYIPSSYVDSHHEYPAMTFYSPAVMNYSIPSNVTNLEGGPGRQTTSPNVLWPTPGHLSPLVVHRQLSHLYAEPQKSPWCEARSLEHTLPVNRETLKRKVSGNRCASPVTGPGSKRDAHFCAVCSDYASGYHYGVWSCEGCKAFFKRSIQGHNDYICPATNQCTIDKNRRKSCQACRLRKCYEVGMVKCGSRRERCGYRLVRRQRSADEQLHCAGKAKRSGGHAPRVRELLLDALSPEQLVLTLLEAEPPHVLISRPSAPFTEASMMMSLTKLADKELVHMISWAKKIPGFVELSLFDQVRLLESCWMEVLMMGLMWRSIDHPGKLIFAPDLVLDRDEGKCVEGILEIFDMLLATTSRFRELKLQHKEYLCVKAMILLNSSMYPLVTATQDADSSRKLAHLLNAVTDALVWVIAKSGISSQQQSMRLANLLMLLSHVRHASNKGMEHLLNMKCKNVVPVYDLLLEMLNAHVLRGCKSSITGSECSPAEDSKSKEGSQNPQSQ
Test: qHTS assay to identify small molecule agonists of the estrogen receptor beta (ER-beta) signaling pathway (AID 1259377; active = well fitted activation curve with a large enough effect in the signal ratio in the repeat runs, not every such curve was filed as active; inconclusive = weak or mixed curves, or effect the other way; the % refers to the signal ratio; as to activation: % is scaled to controls: 0 for no effect and ±100 for the full control effect)
Details: ER-beta-UAS-bla HEK293T, beta-lactamase FRET ratio, 16 h; activation: at 92.4 µM (top of the series) unless noted
Method in brief: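 Measured by fluorescence intensity from a B/G FRET beta-lactamase substrate (2 h, room temperature) in ER-beta-UAS-bla HEK293T cells treated with DMSO-dissolved compounds for 16 hr at 37C and 5% CO2.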
With COc1ccc(-c2coc3cc(O)ccc3c2=O)cc1 the Potency was inconclusive: 2.73 µM [fluorescent, full curve]. For Nc1ccc(C(=O)Nc2ccccc2N)cc1, the activation was inconclusive: 10.3% [at 42.5 µM]. With Oc1ccc(Cc2ccccc2)cc1 the Potency was inconclusive: 14.2 µM [activator, partial curve]. For CCOC(=O)c1ccc(OC(=O)CCCCCN=C(N)N)cc1, the Potency was inconclusive: 13.3 µM [fluorescent, single point]. For Cc1oc(-c2ccccc2)nc1CCC(=O)c1ccc(CC2SC(=O)NC2=O)cc1 (centres undefined), the Potency was inconclusive: 10.6 µM [rising, partial curve]. In the case of COC1CCC=CO1 (centres undefined), the Potency is reported as “inactive”. In the case of C[Si](C)(C)O[Si](C)(C)C, the Potency is reported as “inactive”. In the case of COc1ccc(-c2nc3ccc(C4=NNC(=O)CC4C)cc3[nH]2)cc1 (centres undefined), the Potency is reported as “inactive”. With CC(C)=CCCC(C)CCO (centres undefined) the Potency was “inactive”. In the case of CCCC1O[C@@H]2C[C@H]3[C@@H]4CCC5=CC(=O)C=C[C@]5(C)[C@H]4[C@@H](O)C[C@]3(C)[C@]2(C(=O)CO)O1 (some centres undefined), the Potency is reported as “inactive”. With C[C@]12CCC(=O)C=C1CC[C@@H]1[C@@H]2C(=O)C[C@@]2(C)[C@H]1CC[C@]2(O)C(=O)CO the Potency was “inactive”.

Molecular target: Estrogen receptor beta (Homo sapiens) (UniProt Q92731)
Test: qHTS assay to identify small molecule antagonists of the estrogen receptor beta (ER-beta) signaling pathway (AID 1259378; active = well fitted inhibition curve with a large enough effect in the signal ratio in the repeat runs, not every such curve was filed as active; inconclusive = weak or mixed curves, or effect the other way; inactive = no such curve, though single readings can be large or run the other way; the % refers to the signal ratio; as to activity, negative = inhibition: % is scaled to controls: 0 for no effect and ±100 for the full control effect)
Details: ER-beta-UAS-bla HEK293T, beta-lactamase FRET ratio, 16 h; activity, negative = inhibition: at 92.4 µM (top of the series) unless noted
Method in brief: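 ER-beta-UAS-bla HEK293T cells in 2% charcoal-stripped FBS medium treated with compound plus 1nM final 17-beta-estradiol for 16 hr at 37C. Beta-lactamase reporter read by FRET substrate fluorescence after 2 hours at room temperature.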
In the case of CC1(C)CCC(C)(C)c2cc(C(=O)Nc3ccc(C(=O)O)cc3)ccc21, the Potency is reported as active: 43.3 µM. In the case of COc1ccc(-c2coc3cc(O)ccc3c2=O)cc1, the activity, negative = inhibition is reported as inconclusive: -37.2%. In the case of C[C@H](CCC(=O)O)[C@H]1CC[C@H]2[C@@H]3CC[C@@H]4C[C@H](O)CC[C@]4(C)[C@H]3C[C@H](O)[C@]12C, the activity, negative = inhibition is reported as inconclusive: -42%. For Nc1ccc(C(=O)Nc2ccccc2N)cc1, the Potency was inconclusive: 4.73 µM [activator, full curve]. With Oc1ccc(Cc2ccccc2)cc1 the Potency was inconclusive: 25.3 µM. With CCOC(=O)c1ccc(OC(=O)CCCCCN=C(N)N)cc1 the activity, negative = inhibition was inconclusive: 1.24% [at 42.5 µM]. For Cc1oc(-c2ccccc2)nc1CCC(=O)c1ccc(CC2SC(=O)NC2=O)cc1 (centres undefined), the Potency was inconclusive: 4.73 µM [fluorescent, full curve]. With CCC(Cl)C(Cl)C(Cl)CC(Cl)C(Cl)C(C)Cl (centres undefined) the Potency was inconclusive: 54.5 µM [inhibitor, partial curve]. For O=C(O)c1ccccc1Nc1cccc(C(F)(F)F)c1, the Potency was inconclusive: 9.44 µM [rising, full curve] and the activity, negative = inhibition was inconclusive: -40.3%. For Nc1nc(Cl)cc(Cl)n1, the Potency was “inactive”.

System: not listed separately
Test: qHTS assay to identify small molecule agonists of the androgen receptor (AR) signaling pathway in the presence of an antagonist - cell viability counter screen (AID 1259379); also: nearly all actives have a fitted effect of over 25% in size
Details: MDA-kb2 viability, CellTiter-Fluor, 16 h; series mostly up to 92.4 µM
Method in brief: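 MDA-kb2 cells (MMTV-luciferase, AR/GR), 3,000/well, 5 h attachment, then 3.0 µM nilutamide (final) and compounds at 15 concentrations. Viability by CellTiter-Fluor fluorescence after 16 h at 37 °C, 0% CO2, in the reporter wells.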
With C[C@H](CCC(=O)O)[C@H]1CC[C@H]2[C@@H]3CC[C@@H]4C[C@H](O)CC[C@]4(C)[C@H]3C[C@H](O)[C@]12C the Potency was inconclusive: 54.6 µM [cytotoxic, partial curve, poor fit]. In the case of Cc1oc(-c2ccccc2)nc1CCC(=O)c1ccc(CC2SC(=O)NC2=O)cc1 (centres undefined), the Potency is reported as inconclusive: 23.7 µM [cytotoxic, partial curve, poor fit]. With COc1ccc(C(=O)/C(Br)=C\C(=O)O)cc1 the Potency was inconclusive: 68.6 µM [cytotoxic, single point].

System: not listed separately
Test: qHTS assay to identify small molecule agonists of the estrogen receptor beta (ER-beta) signaling pathway - cell viability counter screen (AID 1259380); also: nearly all actives have a fitted effect of over 30% in size
Details: ER-beta-bla HEK293T viability, CellTiter-Glo luminescence, 16 h; series mostly up to 92.4 µM
Method in brief: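 ER-beta-UAS-bla HEK293T cells in medium with 2% charcoal-stripped FBS, pre-incubated 6 hr, then treated 16 hr at 37C. Cytotoxicity read in the same wells by CellTiter-Glo luminescence after 30 min at room temperature.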
In the case of O=c1cccccc1O, the Potency is reported as inconclusive: 55.5 µM [cytotoxic, partial curve]. For Oc1ccc(Cc2ccccc2)cc1, the Potency was inconclusive: 31.8 µM [cytotoxic, partial curve]. For CC(C)=CCCC(C)CCO (centres undefined), the Potency was “inactive”. In the case of CCC(Cl)C(Cl)C(Cl)CC(Cl)C(Cl)C(C)Cl (centres undefined), the Potency is reported as inconclusive: 68.6 µM [cytotoxic, single point]. In the case of CCCC1O[C@@H]2C[C@H]3[C@@H]4CCC5=CC(=O)C=C[C@]5(C)[C@H]4[C@@H](O)C[C@]3(C)[C@]2(C(=O)CO)O1 (some centres undefined), the Potency is reported as inconclusive: 68.7 µM [cytotoxic, partial curve] and inconclusive: 43.3 µM [cytotoxic, partial curve]. For O=C(O)c1ccccc1Nc1cccc(C(F)(F)F)c1, the Potency was active: 17.2 µM and inconclusive: 18.8 µM [cytotoxic, partial curve]. With NC(=O)c1ncn([C@@H]2O[C@H](CO)[C@@H](O)[C@H]2O)n1 the Potency was inconclusive: 28.8 µM [cytotoxic, partial curve].

System: not listed separately
Test: qHTS assay to identify small molecule antagonists of the estrogen receptor beta (ER-beta) signaling pathway - cell viability counter screen (AID 1259382); also: nearly all actives have a fitted effect of over 55% in size
Details: ER-beta-UAS-bla HEK293T viability, CellTiter-Glo luminescence, 16 h; series mostly up to 92.4 µM
Method in brief: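 ER-beta-UAS-bla HEK293T cells in 2% charcoal-stripped FBS medium, treated with compound plus 1 nM 17-beta-estradiol for 16 h at 37C. Viability read by CellTiter-Glo luminescence after 30 min at room temperature in the same wells.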
In the case of O=c1cccccc1O, the Potency is reported as inconclusive: 55.5 µM [cytotoxic]. With C[C@H](CCC(=O)O)[C@H]1CC[C@H]2[C@@H]3CC[C@@H]4C[C@H](O)CC[C@]4(C)[C@H]3C[C@H](O)[C@]12C the Potency was inconclusive: 48.7 µM [cytotoxic, partial curve]. For Cc1oc(-c2ccccc2)nc1CCC(=O)c1ccc(CC2SC(=O)NC2=O)cc1 (centres undefined), the Potency was inconclusive: 5.31 µM [cytotoxic, full curve, poor fit]. With C=C(C)C(=O)OC(C)C the Potency was “inactive”. For O=C(O)c1ccccc1Nc1cccc(C(F)(F)F)c1, the Potency was inconclusive: 21.7 µM [cytotoxic, partial curve] and inconclusive: 11.9 µM [cytotoxic, single point]. With NC(=O)c1ncn([C@@H]2O[C@H](CO)[C@@H](O)[C@H]2O)n1 the Potency was inconclusive: 28.8 µM [cytotoxic, partial curve]. For CCCCC(CC)COP(=O)(O)OCC(CC)CCCC (centres undefined), the Potency was active: 68.7 µM and active: 68.6 µM.
